Experimental data published in the supplement of paper PMC3334620.
In all, about 33,000 sequences were measured (“E-score (-0.5 to 0.5)”: median about -0.017, highest 2% from about 0.3 on). The list shows a part of the results.

Target: T1, Sut1 (UniProt P53032)
T1 sequence: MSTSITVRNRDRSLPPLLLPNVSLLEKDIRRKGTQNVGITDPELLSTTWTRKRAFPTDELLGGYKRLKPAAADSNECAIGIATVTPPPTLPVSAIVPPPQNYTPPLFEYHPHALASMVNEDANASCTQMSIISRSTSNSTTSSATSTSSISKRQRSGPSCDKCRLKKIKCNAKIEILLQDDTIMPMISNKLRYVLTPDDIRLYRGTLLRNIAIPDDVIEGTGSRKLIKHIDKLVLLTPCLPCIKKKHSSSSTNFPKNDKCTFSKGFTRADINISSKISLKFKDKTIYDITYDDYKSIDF
Assay: PBM E-score (8-mer binding enrichment) (E-score (-0.5 to 0.5)); higher = stronger / more preferred TF binding; most listed sequences are background and not binding sites
Details: protein concentration: 200 nM; construct: GST-full length
Method: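 Universal 'all 10-mer' protein binding microarrays (Agilent AMADID 015681) probed with GST-tagged S. cerevisiae TFs (full-length or DBD) made by in vitro transcription/translation (PURExpress), about 100-200 nM. Bound TF was detected with fluorescent anti-GST. Each ungapped 8-mer (which stands for itself and its reverse complement) is scored by the PBM enrichment score (E-score), a modified Wilcoxon-Mann-Whitney statistic from -0.5 to +0.5, computed with the Universal PBM Analysis Suite. Scale: above 0.35 generally sequence-specific binding.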

Row | Sequence | PBM E-score
1 | CCCAATAG | -0.0632
2 | AGCGTTTC | 0.0496
3 | CCAGTCGG | 0.0988
4 | GATAGACA | -0.095
5 | ATCCTGTG | -0.0363
6 | ATTAGTAC | 0.125
7 | AAGTATGG | 0.0429
8 | AATAATTA | 0.329
9 | ATGGGCGG | -0.142
10 | CATTAGCA | -0.0751
11 | CTTTCCGC | 0.254
12 | AGGTGACT | -0.0698
13 | TGACCTAA | 0.0458
14 | CCACATTC | 0.00225
15 | GCAGATCC | -0.0446
16 | AGGGGGCC | -0.465
17 | AGGTCCCG | 0.0931
18 | GTAAGGCA | -0.14
19 | GTCCATCA | -0.0674
20 | CACGGCTG | -0.414
21 | CCCCCGGC | -0.251
22 | GATCCCGA | -0.064
23 | ATATGGAG | 0.1
24 | CTGGGAGA | -0.157
25 | CAGCCCCC | -0.284

Row | Sequence | PBM E-score
26 | AGCTGGGG | -0.138
27 | GTACCGAA | -0.0465
28 | ACCGTACC | -0.185
29 | ACGAATTC | 0.0693
30 | CGCACCAA | -0.169
31 | GGGATCGA | -0.18
32 | CGTCCTCA | -0.163
33 | AAAAACAA | 0.316
34 | GGCTGAGA | 0.0723
35 | ATGCAGAG | -0.162
36 | ATGGCGAA | 0.0828
37 | GACAACTC | 0.214
38 | CCATGGTC | -0.177
39 | ACCCCCTC | -0.352
40 | GAGGATAC | -0.142
41 | CCAGTTCA | -0.0558
42 | AATCATTA | 0.203
43 | CCTCAGTA | -0.122
44 | ATAGTTGC | 0.0377
45 | CAGGTGGC | -0.219
46 | CGACCTCC | 0.173
47 | TACAGAAA | 0.156
48 | CGTAGTCA | -0.0242
49 | ACCAGCCG | 0.0118
50 | ACTTGAAT | 0.234

Row | Sequence | PBM E-score
51 | AGCTCAAA | 0.175
52 | ATAAGGCG | -0.126
53 | CGGTCAAA | 0.14
54 | GGAGGAAC | -0.117
55 | AGGCTTGA | -0.0347
56 | ATCTCAAG | 0.106
57 | CGACGTGA | -0.0762
58 | CATCGCGA | -0.0789
59 | CGGCACCC | -0.103
60 | CCGGTCAA | 0.0902
61 | CAAGACTC | -0.00522
62 | CCTACTTC | 0.0118
63 | AAAGGGGT | -0.231
64 | AACAACGG | 0.175
65 | ATATACAC | 0.248
66 | AGACACTG | -0.268
67 | ATCAGCGC | 0.014
68 | GCCTCCGA | 0.0353
69 | CCGCTCAA | -0.078
70 | CTGCATCA | -0.124
71 | CCTGTGTC | -0.193
72 | AGGGGAAG | -0.327
73 | CGTAGTAC | -0.0996
74 | AGTCAATG | -0.0996
75 | CTAAATAG | 0.0251

Row | Sequence | PBM E-score
76 | GATCGGGA | -0.148
77 | GAGCAGCA | 0.00604
78 | ACAGCAAT | 0.154
79 | CCGTTCCC | -0.0906
80 | ATACGATC | 0.0375
81 | GATCTGCC | -0.101
82 | AAAGAATC | 0.14
83 | AAGGGGTG | -0.252
84 | CGCTACTC | 0.0248
85 | ACTTCGAT | 0.0824
86 | AGTGTAGC | -0.123
87 | GCCTGCAA | -0.147
88 | AGAGCTAG | -0.194
89 | CTAGAGGA | -0.182
90 | GTAGTCAC | -0.203
91 | GAAAAGTA | 0.14
92 | AATGTGCA | 0.118
93 | GGAGTGCA | 0.18
94 | GTAAATAC | -0.0034
95 | AGTGAGCG | -0.0213
96 | AAGCAAGC | -0.115
97 | AAGTTTCC | 0.212
98 | TTGCGAAA | 0.158
99 | GAATGAGA | 0.198
100 | AGCATGGG | -0.138

Row | Sequence | PBM E-score
101 | AGAAATAC | 0.101
102 | AGGATACG | -0.289
103 | AACAAATT | 0.306
104 | CTTTCTTC | 0.136
105 | CGATGTAG | -0.109
106 | GGAACATA | 0.0983
107 | CTAACGGA | 0.305
108 | AGCTAGCT | 0.00936
109 | AGTATTTA | 0.205
110 | CTGAAACA | -0.00856
111 | ATGGTAGA | 0.0301
112 | GAGGAGGC | -0.194
113 | AACACGGT | -0.0556
114 | AGCTAGTA | 0.037
115 | CTTCAAAC | 0.153
116 | GCGATGAA | 0.00043
117 | CCTGTTTA | -0.0053
118 | CACGTGGC | -0.386
119 | CGAGTAAG | 0.0896
120 | GGCCCACA | -0.0879
121 | GGACCACC | 0.0358
122 | CTTAAACC | 0.0346
123 | GACAATCA | -0.00977
124 | ATCCGTAC | 0.178
125 | ACATGCAA | 0.0642

Row | Sequence | PBM E-score
126 | CGATGAAC | 0.0671
127 | ACAAGTGG | -0.112
128 | AGGCGGTC | -0.257
129 | CCTCGCGA | -0.256
130 | GGACAAGA | -0.143
131 | ATATTCAA | 0.246
132 | ACCGGATC | 0.0878
133 | GTCCCCCA | -0.245
134 | CCTAAGAA | -0.0499
135 | GCAATGCC | 0.00926
136 | CCACGTAA | -0.0674
137 | GCCGAAAC | 0.105
138 | AATTAGAT | 0.271
139 | GCATCGCA | -0.183
140 | AACGATAC | -0.0812
141 | GATAGTCC | 0.193
142 | CCACTCCG | 0.444
143 | AAGCTACG | -0.221
144 | CTTAGTCA | -0.0284
145 | AAGGTTGG | 0.0687
146 | GATTGAGA | 0.116
147 | GTATTGGA | 0.0245
148 | CAGTAATC | -0.105
149 | AGACAAAG | -0.0899
150 | AACTTTAT | 0.119

Row | Sequence | PBM E-score
151 | GCCATGTA | -0.0686
152 | TAATAACA | 0.163
153 | ACGATCCA | 0.0515
154 | GGCTAAAA | -0.00644
155 | CCTCTAAC | -0.0627
156 | ACTGACAT | -0.096
157 | ATAGATCC | -0.0213
158 | AGACGAGA | -0.196
159 | CGAATGAG | 0.118
160 | ATTTTACG | 0.197
161 | GGGACGTA | -0.12
162 | AAAAGTGT | -0.0801
163 | CTTGGGCA | -0.0304
164 | GCTCCCCA | -0.408
165 | ATAGATTC | 0.225
166 | ATACGTAT | 0.203
167 | AACGATTA | 0.131
168 | ATCGGCGA | -0.0797
169 | ATGGCACG | -0.237
170 | CAACATGG | -0.135
171 | ACCCTGCA | -0.126
172 | CTGTAGCC | -0.238
